Usually AC50 stands for the midpoint of the concentration-response curve, whichever way the signal moves.

24 compounds from PubChem BioAssay (NCATS) can be followed below.

Molecules are shown by their SMILES. The list shows a part of the results. These are further read-outs of the screen, such as a control signal, another cell line or another target. No call is given for them. Words in brackets tell the shape of the fitted curve; partial curves, single points and poor fits give uncertain potencies.
Tags tell the direction and shape of the fitted curve.

This assay is described as follows: qHTS drug screen for cell cycle checkpoint inhibitors in PARPi-resistant BRCA-mutant ovarian cancer cell lines. (AID 1963452). The following applies: PEO1/OlaR viability, CellTiter-Glo luminescence, 96 h; measured here: PEO1 parental viability. In a few lines:
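PEO1, PEO4 and PEO1/OlaR ovarian cancer cells, 600 per well, exposed 96 h at 37C to a dilution series. Viability read by CellTiter-Glo luminescence, normalized to DMSO and empty wells; activity summarized as Z-AUC.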
On the technique in general: Quantitative high-throughput screening tests each substance at several concentrations.
For the compound `CC#CC(=O)N1CC[C@@H](n2c(=O)n(-c3ccc(Oc4ccccc4)cc3)c3c(N)ncnc32)C1`, the half-maximal activity concentration (AC50) is 13.8 µM [falling, single point]. For `O=C(c1c(F)ccc(NS(=O)(=O)N2CC[C@@H](F)C2)c1F)c1c[nH]c2ncc(-c3cnc(C4CC4)nc3)cc12` the value was 13.8 µM [falling, single point]; for `CNC(=O)c1ccccc1Nc1nc(Nc2ccc3c(c2OC)CCC[C@H](N2CCN(CCO)CC2)C3)ncc1Cl`, 4.36 µM [falling, partial curve]. As for `Cc1cc(-c2nc3cc(F)ccc3s2)ccc1NC(=O)[C@@H](N)CCCCN`, the AC50 is 19.5 µM [falling, single point]. For `Cc1ccc(-c2ccc3ncc4c(c3n2)n(C2CCN(C(=O)[C@H](C)O)CC2)c(=O)n4C)cn1` the value was 0.275 µM [falling, full curve]; for `Cc1ncsc1-c1ccc([C@H](C)NC(=O)[C@@H]2C[C@@H](O)CN2C(=O)[C@@H](NC(=O)COCCCOCCNC(=O)C[C@@H]2N=C(c3ccc(Cl)cc3)c3c(sc(C)c3C)-n3c(C)nnc32)C(C)(C)C)cc1`, 0.0871 µM [falling, full curve]. In the case of `CC[C@@H](C)Nc1cc(C(=O)NC2CC3CCC(C2)N3c2ccc(C(=O)C3CC3)cn2)c(C)cc1C(N)=O` (some centres undefined), the AC50 was 0.174 µM [falling, full curve]. For `Cc1ncc(NC(=O)c2cccc(C(F)(F)F)c2)cc1-c1cnc(OC2CCOCC2)c(N2CCOCC2)c1` the value was 6.92 µM [falling, partial curve]; for `COc1cc(=C2C=c3ccccc3=N2)[nH]/c1=C/c1[nH]c(C)cc1C`, 24.5 µM [falling, single point]. In the case of `CC1=C(c2ccc(O)cc2)[C@H](c2ccc(OCCN3CCCCC3)cc2)Oc2cc(O)ccc21`, the AC50 is 24.5 µM [falling, single point]. As to `Nc1nc2c(c(=O)[nH]1)N1CN(c3ccc(C(=O)N[C@@H](CCC(=O)O)C(=O)O)cc3)CC1CN2` (some centres undefined), the AC50 is 1.23 µM [falling, full curve].

As to `O=C(CCCCCCNC(=O)c1cnc(N(c2ccccc2)c2ccccc2Cl)nc1)NO`, the AC50 is 13.8 µM [falling, partial curve]. `C=CCc1cccc(/C=N/NC(=O)CN2CCN(Cc3ccccc3)CC2)c1O`: the half-maximal activity concentration (AC50) was 13.8 µM [falling, partial curve]. Turning to `C/C(=C\C(=O)Nc1ccccc1C(=O)O)c1ccc2ccccc2c1`, the AC50 was 15.5 µM [falling, single point]. `CN(C)C/C=C/C(=O)Nc1ccc(C(=O)N2CCC[C@@H](Nc3ncc(Cl)c(-c4c[nH]c5ccccc45)n3)C2)cc1`: the AC50 was 0.0977 µM [falling, full curve]. In the case of `COc1cc(-c2cc(-c3ccc(N4CCNCC4)cc3)cnc2C)cc(OC)c1OC` it was 19.5 µM [falling, single point]. Turning to `Cc1c(CN2CCC(Nc3ncnc4sc(CC(F)(F)F)cc34)CC2)ccc2c1cc(C#N)n2Cc1cn[nH]c1`, the AC50 is 3.47 µM [falling, full curve]. In the case of `CCCNC(=O)[C@H]1O[C@@H]1C(=O)N[C@H](C(=O)N1CCC[C@H]1C(=O)OC)C(C)CC` (some centres undefined) it was 24.5 µM [falling, single point]; in that of `COc1ccc2c(c1)[C@]1(C[C@H]1c1ccc3c(/C=C/c4ccc(CN5C[C@@H](C)O[C@@H](C)C5)cc4)n[nH]c3c1)C(=O)N2`, 21.9 µM [falling, single point]; in that of `Nc1ncccc1-c1nc2ccc(-c3ccccc3)nc2n1-c1ccc(C2(N)CCC2)cc1`, 19.5 µM [falling, partial curve]. With `O=C(O)Cc1cccc(OCCCN(Cc2cccc(C(F)(F)F)c2Cl)CC(c2ccccc2)c2ccccc2)c1`, the AC50 was 27.5 µM [falling, single point]. Regarding `COc1cc2nc(-c3cc(F)ccc3O)nc(N[C@@H]3CNC[C@H]3C(C)(C)O)c2cc1OC`, the AC50 was 6.16 µM [falling, partial curve].

As to `CN(C)CCCOc1ccc(-c2ccc3ncc4c(c3c2)n(C2CCOCC2)c(=O)n4C)cn1`, the AC50 is 4.25 µM [falling, partial curve]. Regarding `C[C@@H](Nc1cc(F)cc(F)c1)c1cc(C(=O)N(C)C)cc2c(=O)cc(N3CCOCC3)oc12`, the AC50 is 13.8 µM [falling, partial curve, poor fit].
